Reference: US11365205B2 (Aurigene Discovery Technologies Limited, priority 2018, dated 2022)

Molecular target: PRMT5/MEP50 Complex (Homo sapiens (Human), UniProt O14744)
Assay: PRMT5 inhibition based on TR-FRET assay
Format: biochemical
Conditions: 32 nM PRMT5:MEP50, 50 nM Histone-H4 peptide, 1 μM SAM
Description: PRMT5 Inhibition Based on TR-FRET Assay:
Protein arginine methyltransferase 5 (PRMT5) is a type II arginine methyltransferase that catalyze mono- and symmetric demethylation on arginine residues of histone or non-histone proteins in presence of S-adenosylmethionine (AdoMet or SAM) a cofactor responsible for donating the methyl group. PRMT5 is reported to be overexpressed in several human cancers. To identify compounds that inhibit the PRMT5 and decrease its activity, a TR-FRET based assay has been established. Time-resolved fluorescence resonance energy transfer (TR-FRET) HTS assays are homogeneous proximity assays where the interaction of two dye-labeled binding partners is detected by the energy transfer between a donor and an acceptor dye and the subsequent light emission by the acceptor dye. PRMT5 catalyzes Histone H4 peptide which is biotin tagged to the Lysine amino acid at carboxyl end, in presence of S-adenosyl-1-methionine (SAM) to methylate the peptide. The antibody specific to mono methylated H4 peptide (H4R3) with Ig conjugate binds to the methylated peptide, indirectly binding to the Europium lanthanide. […]
The compound dilutions were prepared as 7.5% DMSO stock solutions in assay buffer. […] The plates were then read on Victor-3 with Excitation at 340 nm and Emissions collected at 615 and 665 nm in TR-FRET protocol. […]

Chain of UniProt O14744 (O14744 whole entry): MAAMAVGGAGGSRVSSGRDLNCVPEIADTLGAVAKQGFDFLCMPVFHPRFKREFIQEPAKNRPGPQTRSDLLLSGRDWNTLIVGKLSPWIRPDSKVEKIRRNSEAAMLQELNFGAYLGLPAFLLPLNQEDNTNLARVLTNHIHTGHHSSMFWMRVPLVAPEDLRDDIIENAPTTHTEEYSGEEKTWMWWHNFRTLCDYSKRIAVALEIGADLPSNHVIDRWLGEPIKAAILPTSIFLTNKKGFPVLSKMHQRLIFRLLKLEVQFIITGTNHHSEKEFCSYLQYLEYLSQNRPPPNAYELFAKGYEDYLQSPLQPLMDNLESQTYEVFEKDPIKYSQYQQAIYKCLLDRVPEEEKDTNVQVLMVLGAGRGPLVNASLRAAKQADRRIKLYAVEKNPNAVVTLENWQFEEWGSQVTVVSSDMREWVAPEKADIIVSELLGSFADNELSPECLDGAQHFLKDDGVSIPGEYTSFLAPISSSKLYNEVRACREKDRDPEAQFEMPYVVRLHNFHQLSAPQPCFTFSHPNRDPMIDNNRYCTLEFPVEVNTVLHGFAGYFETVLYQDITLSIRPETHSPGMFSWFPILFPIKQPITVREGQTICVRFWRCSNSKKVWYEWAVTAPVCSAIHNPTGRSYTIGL
Chain of UniProt O14744 (Q9BQA1 whole entry partner): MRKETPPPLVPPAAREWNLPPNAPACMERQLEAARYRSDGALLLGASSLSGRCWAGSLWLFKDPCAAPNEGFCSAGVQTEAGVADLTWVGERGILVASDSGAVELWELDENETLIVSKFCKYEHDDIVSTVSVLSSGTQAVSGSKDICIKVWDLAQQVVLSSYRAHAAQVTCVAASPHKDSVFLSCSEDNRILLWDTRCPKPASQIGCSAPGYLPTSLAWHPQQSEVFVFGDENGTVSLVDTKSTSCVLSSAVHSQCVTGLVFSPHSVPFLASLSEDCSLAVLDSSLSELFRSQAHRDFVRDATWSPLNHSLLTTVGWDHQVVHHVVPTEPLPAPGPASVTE

IC50 [nM]	Structure (SMILES)
590	N#Cc1cccc(CN2CCN(CC(O)CN3CCc4ccccc4C3)C2=O)n1 (centres unmarked) [Example 36, 6-((3-(3-(3,4-Dihydroisoquinolin-2(1H)-yl)-2-hydroxypropyl)-2-oxoimidazolidin-1-yl)methyl)picolinonitrile]
80	Cc1cc(CN2CCN(CC(O)CN3CCc4ccccc4C3)C2=O)ccc1C#N (centres unmarked) [Example 37]
